Assay results: publication PMC6919601, “Identification of Plasmodium dipeptidyl aminopeptidase allosteric inhibitors by high throughput screening” (PLoS ONE, 2019)
Screen size: about 110,000 compounds; about 230 (0.21%) showed an effect of 50% or more. The list shows a part of the results.

molecular target: DPAP1 (Plasmodium falciparum, UniProt Q8IIJ9); experiment: primary screen, percent inhibition; read by cleavage of a fluorogenic dipeptide substrate; higher = more effect of the substance; set-up: species or system P. falciparum D10 trophozoite lysates; single well
Sequence (Q8IIJ9 whole entry, looked up): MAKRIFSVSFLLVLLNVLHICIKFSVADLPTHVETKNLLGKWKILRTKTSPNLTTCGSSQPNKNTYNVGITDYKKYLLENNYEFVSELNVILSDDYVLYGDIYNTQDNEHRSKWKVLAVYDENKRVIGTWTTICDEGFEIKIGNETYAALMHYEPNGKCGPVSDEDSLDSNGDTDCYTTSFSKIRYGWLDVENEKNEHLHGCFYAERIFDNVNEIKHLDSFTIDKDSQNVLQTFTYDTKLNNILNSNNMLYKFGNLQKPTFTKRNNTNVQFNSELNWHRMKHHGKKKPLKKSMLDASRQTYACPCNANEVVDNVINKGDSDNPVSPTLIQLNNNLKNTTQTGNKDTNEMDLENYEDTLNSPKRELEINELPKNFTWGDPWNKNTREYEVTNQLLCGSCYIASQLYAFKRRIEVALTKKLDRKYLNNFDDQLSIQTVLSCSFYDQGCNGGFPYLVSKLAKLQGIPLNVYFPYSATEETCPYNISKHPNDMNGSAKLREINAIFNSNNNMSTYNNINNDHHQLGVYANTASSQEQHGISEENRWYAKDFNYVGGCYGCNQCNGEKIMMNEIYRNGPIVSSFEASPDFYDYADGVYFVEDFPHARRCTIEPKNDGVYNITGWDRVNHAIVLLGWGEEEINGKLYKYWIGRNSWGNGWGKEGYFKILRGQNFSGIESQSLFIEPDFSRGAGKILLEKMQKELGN
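Further: 30 min substrate incubation versus DMSO and 10 µM JCP410 controls.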

SMILES | % Inhibition @ 10 uM [%]
O=C1NN(c2ccc(Cl)c(Cl)c2)C(=O)/C1=C/c1ccc(Br)cc1 | -1.5
CCOc1ccc(C2Oc3ccccc3C3CC(c4ccccc4O)=NN32)cc1 (centres unmarked) | 1.55
CC[C@H](NC(=O)[C@H](CC1CCCCC1)/N=C/NS(=O)(=O)c1ccccc1)C(=O)c1nc2ccccc2o1 | -8.36
Cc1cccc(CN2CCC(CNC(=O)c3cc(S(=O)(=O)N4CCCC4)cn3C)CC2)c1 | -3.42
COc1ccc2nc(N(CCN(C)C)C(=O)COc3ccccc3)sc2c1 | -5.3
Cc1[nH]c2ccccc2c1C(=O)/C=C/c1cccc2ccccc12 | 2.6
c1ccc2c(c1)c(NCc1ccncc1)nn1nnnc21 | 0.451
O=C1S/C(=C/c2cccc(O)c2)C(=O)N1Cc1ccccc1F | -1.22
Cc1ccccc1-n1nc2c(c1NC(=O)/C=C\c1ccccc1)CS(=O)(=O)C2 | 3.8
COc1cc2c(C)nc3c(c(C)nn3Cc3ccccc3)c2cc1OC | -0.254
COc1ccc(OC)c(C2C(=O)N(C3CCC(C)CC3)CC(=O)N2CCc2ccccc2)c1 (centres unmarked) | 4.36
Cc1oc(-c2cccs2)nc1CS(=O)CC(=O)NCCc1ccc(Cl)cc1 (centres unmarked) | -1.89
Cn1ncc2c(N3CCC(O)CC3)ncnc21 | 5.23
COc1ccc(C2C=C(c3ccc(C)cc3)Nc3ncnn32)c(OC)c1OC (centres unmarked) | 3.32
CN(C)CCN(C(=O)C1CCCCC1)c1nc2ccc(F)cc2s1 | -5.59
O=C(Nc1cccc(O)c1)c1ccc(-c2ccccc2)cc1 | 2.5
Cc1ccc(-c2c(N3CCN(c4ccccn4)CC3)c(=O)c2=O)cc1 | 0.0281
O=C(c1ccccc1)c1ccc2nc(NCc3ccncc3)c3nncn3c2c1 | 5.84
COc1ccc(CCNC(=O)CCc2ccccc2)cc1OC | -4.16
Cc1csc2nc(CNC(=O)c3ccco3)cn12 | 0.953
O=C(NCCc1ccsc1)c1cc2ccccn2n1 | -1.7
COc1ccc(C)cc1NC(=O)CC(O)(C(F)(F)F)C(F)(F)F | 0.907
CCc1ccc(OCC(=O)N(Cc2nc(-c3ccccc3)no2)C(C)C)cc1 | 0.809
CC(=O)Nc1ccccc1SCC(=O)Nc1sc2c(c1C#N)CCCC2 | 2.38
C=CCCC(C)(O)C(C=C)S(=O)(=O)c1ccc(C)cc1 (centres unmarked) | -4.06

SMILES | % Inhibition @ 10 uM [%]
O=C(CN1C(=O)S/C(=C\c2ccc(-c3ccc(F)cc3)o2)C1=O)N1CCCC1 | -1.43
Cc1ccc(Cn2c(=O)c3c(ncn3Cc3ccccc3)n(C)c2=O)cc1 | -1.6
Cc1ccc(NC2CC(=O)N(c3ccc(F)cc3)C2=O)cc1 (centres unmarked) | -17.7
COc1ccc(C2c3sc(O)nc3SC3C4CCC(C4)C23)cc1 (centres unmarked) | 13.2
Cc1ccccc1OCc1nc(C#N)c(NCCN(C)C)o1 | 5.65
CCOc1nc(NC(C)(C)CO)nc(OCC)n1 | 2.33
Cc1ccnc(NC(=O)C2CCCN(S(=O)(=O)c3ccc4nc(O)ccc4c3)C2)c1 (centres unmarked) | 0.568
CC(=O)N(CN1C(=O)C2C3C=CC(C3)C2C1=O)c1ccc(C)cc1 (centres unmarked) | 4.99
O=C(O)c1ccccc1C(=O)Nc1ccc2ncccc2c1 | 1.66
CCOC(=O)N1CCC(NC(=O)C(CC)n2c3ccccc3c3cnnc(O)c32)CC1 (centres unmarked) | -0.281
O=C(NC1CC1)c1nc(-c2ccc(-n3cccc3)cc2)no1 | -0.0678
CCN(CC)CCN(C)C1CCN(Cc2ccccc2)CC1 | 1.57
CC1CN(C(=O)c2cc(Cl)ccc2Cl)CC(C)O1 (centres unmarked) | -1.6
CCN1CCN(S(=O)(=O)c2c[nH]c(C(=O)OC)c2)CC1 | 0.0525
Cc1ccccc1Cn1c(CN2CCC(Cc3ccccc3)CC2)nc2c1c(=O)n(C)c(=O)n2C | -2.29
CCOCCCNC(=O)c1ccc2c(c1)ncn2-c1ccc(CC)cc1 | -0.256
COC(=O)C1=C(N)Oc2cc(C)nc(O)c2C1c1ccccc1 (centres unmarked) | -1.11
CC1(C)CC(=O)C2=C(C1)OC(N)=C(C#N)C2c1cccc2ccccc12 (centres unmarked) | -0.268
C/C=C(\C)CN(CC)CCN(CC)CC | -0.603
COc1ccc(CCNC(=O)Cn2c3ccccc3c3cnnc(O)c32)cc1OC | -3.79
Cn1c(C(=O)N2CCCC(C(=O)NCCc3c[nH]c4ccccc34)C2)cc2sccc21 (centres unmarked) | -7.33
O=C(NC1CCCC1)c1cnn(-c2ccccc2)c1C1CCNCC1 | -5.24
COc1ccccc1/C=C(\C#N)c1nc(O)c2ccccc2n1 | -1.1
O=C(NC(c1ccccc1)c1c(O)ccc2ccccc12)c1ccc(Cl)cc1Cl (centres unmarked) | -5.28
O=C(Nc1cccc(Cl)c1)OC1CC2C=CC1C2 (centres unmarked) | 1.15
